Read counts are not given, so values of variants with three or more changes are uncertain.
B1: CPEB3 Ribozyme (parent)
chain: UAACAGGGGGCCACAGCAGAAGCGUUCACGUCGCAGCCCCUGUCAGAUUCUGGUGAAUCUGCGAAUUCUGCUGUAUAUCUC

Variants of: B1
Assay: self-cleavage, relative activity (ratio to wild type); higher = more cleavage; in vitro, sequencing
Outline: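 Relative activity was defined as the cleaved/total read fraction for a variant divided by the same fraction for the unmutated ribozyme. CPEB3 self-cleaving ribozyme libraries were made by rounds of error-prone PCR, barcoded, and transcribed in vitro with T7 RNA polymerase for 5 hours at 37°C, and cleavage ran through transcription plus a 15 min DNase I step before EDTA. Illumina sequencing of template-switched reverse transcripts gave the reads, and DNA sequencing mapped the barcodes. Averages come from three batches, using variants with at least 5 reads.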

Variant	self-cleavage
A13G C37U U66C U80A	0.09
A13G C37U A77U	1.03
A13G A28G C40U A45G U60A	0.1
A13C A21G U25C	0.32
A13G C29G U78C	0.28
C12U A21G U41A A64U	0.24
C12U A15G A18U U58C	0.2
C12U G19A A21G U26C U41C	0.06
C12U A15G A20G U51C G70A	0.11
C12U U54C U67C	0.31
A13G A21U U25C U69C	0.06
A13C U26C A45U	0.25
A13G A28C U54C G73A	0.59
A13G C23U C40U C44A C50G U69A U76C	0.04
A13G C37G U43C A57U U72A U76C	0.09
A13C U31A U60C U74G A75U	0.25
A13G A21U C32A U48G U51C A64U	0.09
A13G A21G A57G U66C A75U	0.75
C12A A56U U69C	0.29
C12U A35U U48A U51C	0.31
A13C A56C A65G	0.12

Variant	self-cleavage
C12U A20G C40U	1.08
C12G C27A U43A C50A A64G	0.14
A13G A35U U51G	0.62
A13G A35G U76C	0.81
A13C A47G A75G	0.89
A13G A15U U31A A35U U54C A56G U60A	0.11
C12U U26C A28G G36U U60A	0.13
C12U U26C A35G C38A U48C A57G U66C	0.08
A13G A21G U72A	0.36
C12A U31G G33C U49C U66C	0.13
A13G A15G C39A A56G U60A	0.22
C12U G24A A64U U74G	0.14
A13G A35C U78C	0.7
C12U U41C U66G A77U	1.09
C12U A28G A35G U41C A45C G61C U66C	0.06
A13G C23G U41C U51A U54G A56U	0.06
C12G A21U A45U U66C U78C	0.04
A13C U26A A28G A45G U74C A75G	0.14
C12U U25C G30C G46C A57C G63A	0.04
C12U A20G A65G U80C	0.29
C12U A20G U72C	1.18

Variant	self-cleavage
A13G A18U C37U U41C U72A U76C	0.11
A13G A20U G46A U48A	0.09
A13G A20G G22U U43A U54A	0.08
A13G A21U U31C U41A U78C C79U	0.05
A13G C14U A28G U41A A57G	0.04
C12A C17G A18U U25C U60G C62U	0.06
A13G A20U U25C G33U A35G U51C G70A	0.05
A13G A15G U41G U49C A56U	0.3
A13G A21G A45U	0.37
C12U A15G G24C	0.23
C12U A45G A65G C81U	0.56
C12U U41A C50A	0.25
C12U U41A C68U	0.21
A13G A28G A45C G53A U72A U76C	0.04
C12A G24A A35G U60C	0.18
A13G G16A A28G U43C U60C U78C	0.15
A13G C40U U41A U66G U67A A77U	0.05
A13G C27A U78C	0.21
A13G A15U A18U	0.44
A13G A47G U51A A56U U72C U76C	0.15
C12U U31C U41C A64U U76C A77U	0.29

Variant	self-cleavage
A13G A18G A20U A45G	0.23
A13G A20G U25C U31A U48C U74A U80C	0.02
A13G C23G A28C	0.27
A13G A21G U54A U72C	0.44
A13G A28C G73A	0.72
A13G A18G U78C	0.17
C12U A45G U60C	1.24
C12U U26G A65G	0.09
A13G A35U U69C	0.14
C12U A18G A20G A64G	0.28
C12A U31C A57C	0.35
A13G A28U U74A A77G	1.1
A13G A57G U60A U69A U80C	0.23
A13G A15C A28G C34U U74A A75G	0.05
A13G A15G A20U U26C A28U A56G	0.38
C12U A45G A47G	0.79
A13G A18G A20G U41C U80C	0.18
A13G A28G A64G	0.34
A13C U41A U49C	0.16
A13C A45U U51A	0.28
C12U A21U A45C	0.12

Reference: the RNAGym collection of RNA variant scans (doi:10.1093/nar/gkz1192)
